Source: patent US20210024639A1 (AGOMAB THERAPEUTICS, published 2021)

Key:
[1] = biological target: T1, native human MET on living human cells (human, UniProt P08581); assay: cell-based or functional assay
[2] = biological target: T1, native human MET on living human cells; assay: cell-based or functional assay; remark: listed apart in the source
T1 sequence (P08581 25-1390): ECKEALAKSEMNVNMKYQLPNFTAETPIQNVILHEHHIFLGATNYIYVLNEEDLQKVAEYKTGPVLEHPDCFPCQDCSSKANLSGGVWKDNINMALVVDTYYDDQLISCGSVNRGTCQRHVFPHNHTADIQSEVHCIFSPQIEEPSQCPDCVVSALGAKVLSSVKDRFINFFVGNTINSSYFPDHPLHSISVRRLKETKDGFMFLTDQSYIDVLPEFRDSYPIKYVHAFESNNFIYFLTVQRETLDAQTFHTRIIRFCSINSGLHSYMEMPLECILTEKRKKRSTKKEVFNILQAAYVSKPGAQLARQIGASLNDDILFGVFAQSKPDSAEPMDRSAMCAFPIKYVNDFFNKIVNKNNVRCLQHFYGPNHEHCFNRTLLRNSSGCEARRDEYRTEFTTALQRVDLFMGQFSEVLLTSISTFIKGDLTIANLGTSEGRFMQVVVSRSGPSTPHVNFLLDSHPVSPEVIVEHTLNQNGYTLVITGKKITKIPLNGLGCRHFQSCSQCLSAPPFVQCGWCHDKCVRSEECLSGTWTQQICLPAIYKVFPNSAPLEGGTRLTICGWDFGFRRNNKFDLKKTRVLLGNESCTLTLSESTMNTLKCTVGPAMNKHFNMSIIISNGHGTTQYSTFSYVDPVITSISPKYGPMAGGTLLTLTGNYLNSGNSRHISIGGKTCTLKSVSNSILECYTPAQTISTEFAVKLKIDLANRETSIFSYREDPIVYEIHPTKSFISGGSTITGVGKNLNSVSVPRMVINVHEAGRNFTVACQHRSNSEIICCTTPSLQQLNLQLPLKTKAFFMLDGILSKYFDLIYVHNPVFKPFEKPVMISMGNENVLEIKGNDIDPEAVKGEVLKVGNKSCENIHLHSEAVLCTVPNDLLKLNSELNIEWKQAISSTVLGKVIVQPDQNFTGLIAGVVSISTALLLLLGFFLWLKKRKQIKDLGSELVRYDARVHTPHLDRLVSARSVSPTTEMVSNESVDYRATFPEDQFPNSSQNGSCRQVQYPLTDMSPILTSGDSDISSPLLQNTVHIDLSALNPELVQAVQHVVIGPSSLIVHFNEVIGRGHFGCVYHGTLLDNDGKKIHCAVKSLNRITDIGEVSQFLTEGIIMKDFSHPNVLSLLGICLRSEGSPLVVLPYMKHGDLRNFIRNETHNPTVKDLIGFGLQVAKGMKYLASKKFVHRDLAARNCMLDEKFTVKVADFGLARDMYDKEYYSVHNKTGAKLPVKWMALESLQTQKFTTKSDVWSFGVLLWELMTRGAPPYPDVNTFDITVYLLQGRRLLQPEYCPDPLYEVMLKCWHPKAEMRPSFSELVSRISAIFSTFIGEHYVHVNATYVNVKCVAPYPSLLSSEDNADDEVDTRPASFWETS

B1: recombinant human HGF (R&D Systems) (ligand)
chain: not shown
modifications: biotinylated at the N-terminus using NHS-LC-biotin in the competition ELISA only
- cell scattering score, HPAF-II, 0.001 nM [1]: 0 score 0-4
- cell scattering score, HPAF-II, 0.004 nM [1]: 1 score 0-4
- cell scattering score, HPAF-II, 0.012 nM [1]: 2 score 0-4
- cell scattering score, HPAF-II, 0.037 nM [1]: 3 score 0-4
- cell scattering score, HPAF-II, 0.111 nM [1]: 4 score 0-4
- cell scattering score, HPAF-II, 0.333 nM [1]: 4 score 0-4
- cell scattering score, HPAF-II, 1.000 nM [1]: 4 score 0-4
- cell scattering score, HPAF-II, 3.000 nM [1]: 4 score 0-4
- cell scattering score, HPAF-II, 9.000 nM [1]: 4 score 0-4
- protection from staurosporine, viability EC50, MCF10A [2]: 4.57 nM
- protection from staurosporine, viability EMAX, MCF10A [2]: 59.3%
